Test results published in the CheMixHub viscosity set.
Values joined by “and” are separate entries in the source; they are usually repeats but may differ in a detail not shown here. Equal values may be shown once. ± gives the uncertainty stated by the source. Further values from the same series stand in other lists.

Test: xn = mol fraction of the nth substance listed

CN(C)C=O + O
viscosity
Conditions | 308.15 K | 313.15 K | 318.15 K | 323.15 K
101 kPa, x1 = 0.02 | – | – | 0.712 ± 0.0069 mPa·s | –
101 kPa, x1 = 0.03 | 0.8484 ± 0.009 mPa·s | – | – | –
101 kPa, x1 = 0.05 | 1.035 ± 0.011 mPa·s | – | 0.8262 ± 0.0094 mPa·s | –
101 kPa, x1 = 0.0503 | 1.068 ± 0.009 mPa·s | 0.9556 ± 0.0083 mPa·s | 0.8604 ± 0.0077 mPa·s | –
101 kPa, x1 = 0.06 | 1.029 ± 0.012 mPa·s | – | – | –
101 kPa, x1 = 0.0699 | 1.196 ± 0.0096 mPa·s | 1.07 ± 0.0088 mPa·s | 0.9618 ± 0.0082 mPa·s | –
101 kPa, x1 = 0.1 | 1.326 ± 0.015 mPa·s and 1.248 ± 0.016 mPa·s and 1.49 ± 0.022 mPa·s | – | 1.039 ± 0.013 mPa·s | –
101 kPa, x1 = 0.1006 | 1.38 ± 0.011 mPa·s | 1.226 ± 0.0097 mPa·s | 1.097 ± 0.0089 mPa·s | –
101 kPa, x1 = 0.1202 | 1.482 ± 0.011 mPa·s | 1.311 ± 0.01 mPa·s | 1.168 ± 0.0093 mPa·s | –
101 kPa, x1 = 0.1498 | 1.627 ± 0.012 mPa·s | 1.435 ± 0.011 mPa·s | 1.275 ± 0.0099 mPa·s | –
101 kPa, x1 = 0.15 | 1.593 ± 0.02 mPa·s | – | 1.211 ± 0.016 mPa·s | –
101 kPa, x1 = 0.1571 | 1.637 ± 0.014 mPa·s | – | – | –
101 kPa, x1 = 0.1698 | 1.706 ± 0.012 mPa·s | 1.501 ± 0.011 mPa·s | 1.33 ± 0.01 mPa·s | –
101 kPa, x1 = 0.2 | 1.759 ± 0.023 mPa·s | – | 1.319 ± 0.018 mPa·s | –
101 kPa, x1 = 0.2002 | 1.801 ± 0.013 mPa·s | 1.581 ± 0.011 mPa·s | 1.399 ± 0.01 mPa·s | –
101 kPa, x1 = 0.22 | 1.846 ± 0.013 mPa·s | 1.62 ± 0.012 mPa·s | 1.432 ± 0.011 mPa·s | –
101 kPa, x1 = 0.25 | 1.849 ± 0.026 mPa·s | – | 1.379 ± 0.02 mPa·s | –
101 kPa, x1 = 0.2504 | 1.892 ± 0.013 mPa·s | – | 1.467 ± 0.011 mPa·s | –
101 kPa, x1 = 0.2608 | – | 1.753 ± 0.29 mPa·s | – | –
101 kPa, x1 = 0.2699 | 1.856 ± 0.015 mPa·s | – | – | –
101 kPa, x1 = 0.2702 | 1.906 ± 0.013 mPa·s | 1.672 ± 0.012 mPa·s | 1.478 ± 0.011 mPa·s | –
101 kPa, x1 = 0.2921 | – | 1.766 ± 0.29 mPa·s | – | –
101 kPa, x1 = 0.3 | 1.858 ± 0.027 mPa·s and 1.796 ± 0.035 mPa·s | – | 1.395 ± 0.021 mPa·s | –
101 kPa, x1 = 0.3001 | 1.905 ± 0.013 mPa·s | 1.673 ± 0.012 mPa·s | 1.481 ± 0.011 mPa·s | –
101 kPa, x1 = 0.304 | – | 1.777 ± 0.29 mPa·s | – | –
101 kPa, x1 = 0.3199 | – | 1.755 ± 0.29 mPa·s | – | –
101 kPa, x1 = 0.3202 | 1.891 ± 0.013 mPa·s | – | 1.474 ± 0.011 mPa·s | –
101 kPa, x1 = 0.3499 | 1.857 ± 0.013 mPa·s | 1.637 ± 0.012 mPa·s | 1.453 ± 0.011 mPa·s | –
101 kPa, x1 = 0.35 | 1.797 ± 0.027 mPa·s | – | 1.369 ± 0.021 mPa·s | –
101 kPa, x1 = 0.3544 | – | 1.734 ± 0.29 mPa·s | – | –
101 kPa, x1 = 0.4 | 1.712 ± 0.027 mPa·s | – | 1.322 ± 0.022 mPa·s | –
101 kPa, x1 = 0.4003 | 1.761 ± 0.013 mPa·s | – | 1.391 ± 0.01 mPa·s | –
101 kPa, x1 = 0.4137 | – | 1.595 ± 0.27 mPa·s | – | –
101 kPa, x1 = 0.425 | 1.63 ± 0.014 mPa·s | – | – | –
101 kPa, x1 = 0.4503 | 1.643 ± 0.012 mPa·s | 1.465 ± 0.011 mPa·s | 1.313 ± 0.01 mPa·s | –
101 kPa, x1 = 0.4848 | – | 1.452 ± 0.26 mPa·s | – | –
101 kPa, x1 = 0.5 | 1.469 ± 0.026 mPa·s and 1.518 ± 0.011 mPa·s and 1.436 ± 0.032 mPa·s | 1.362 ± 0.01 mPa·s | 1.206 ± 0.021 mPa·s and 1.229 ± 0.0095 mPa·s | –
101 kPa, x1 = 0.5461 | 1.417 ± 0.012 mPa·s | – | – | –
101 kPa, x1 = 0.5714 | – | 1.23 ± 0.23 mPa·s | – | –
101 kPa, x1 = 0.6 | 1.232 ± 0.024 mPa·s | – | 1.051 ± 0.02 mPa·s | –
101 kPa, x1 = 0.6002 | 1.275 ± 0.0098 mPa·s | 1.16 ± 0.0091 mPa·s | 1.059 ± 0.0086 mPa·s | –
101 kPa, x1 = 0.6644 | 1.153 ± 0.0097 mPa·s | – | – | –
101 kPa, x1 = 0.7 | 1.042 ± 0.022 mPa·s | 0.9927 ± 0.0082 mPa·s | 0.9005 ± 0.019 mPa·s and 0.9164 ± 0.0078 mPa·s | –
101 kPa, x1 = 0.8 | 0.8918 ± 0.02 mPa·s and 0.9286 ± 0.0079 mPa·s | 0.8629 ± 0.0075 mPa·s | 0.7907 ± 0.018 mPa·s and 0.804 ± 0.0072 mPa·s | –
101 kPa, x1 = 0.8171 | – | 0.938 ± 0.2 mPa·s | – | –
101 kPa, x1 = 0.8501 | 0.8884 ± 0.0076 mPa·s | 0.828 ± 0.0073 mPa·s | 0.7734 ± 0.007 mPa·s | –
101 kPa, x1 = 0.9 | 0.7828 ± 0.019 mPa·s and 0.8362 ± 0.0074 mPa·s | 0.7822 ± 0.0071 mPa·s | 0.7083 ± 0.017 mPa·s and 0.7333 ± 0.0068 mPa·s | –
101.33 kPa, x1 = 0.099 | 1.335 ± 0.01 mPa·s | 1.183 ± 0.0094 mPa·s | 1.057 ± 0.0085 mPa·s | 0.949 ± 0.0078 mPa·s
101.33 kPa, x1 = 0.2009 | 1.753 ± 0.013 mPa·s | – | 1.36 ± 0.011 mPa·s | 1.207 ± 0.0097 mPa·s
101.33 kPa, x1 = 0.3008 | 1.847 ± 0.014 mPa·s | 1.62 ± 0.013 mPa·s | 1.436 ± 0.011 mPa·s | 1.274 ± 0.01 mPa·s
101.33 kPa, x1 = 0.3995 | 1.708 ± 0.013 mPa·s | 1.51 ± 0.012 mPa·s | 1.349 ± 0.01 mPa·s | 1.207 ± 0.0096 mPa·s
101.33 kPa, x1 = 0.5005 | 1.454 ± 0.011 mPa·s | 1.306 ± 0.01 mPa·s | 1.179 ± 0.0093 mPa·s | 1.069 ± 0.0086 mPa·s
101.33 kPa, x1 = 0.5999 | 1.229 ± 0.0097 mPa·s | 1.12 ± 0.0089 mPa·s | 1.024 ± 0.0082 mPa·s | 0.9379 ± 0.0076 mPa·s
101.33 kPa, x1 = 0.6997 | 1.035 ± 0.0083 mPa·s | 0.954 ± 0.0078 mPa·s | 0.8831 ± 0.0073 mPa·s | 0.8189 ± 0.0068 mPa·s
101.33 kPa, x1 = 0.7998 | 0.8956 ± 0.0073 mPa·s | 0.8344 ± 0.0069 mPa·s | 0.7797 ± 0.0065 mPa·s | 0.7282 ± 0.0062 mPa·s
101.33 kPa, x1 = 0.9 | 0.7894 ± 0.0066 mPa·s | 0.7417 ± 0.0063 mPa·s | 0.6979 ± 0.006 mPa·s | 0.6585 ± 0.0057 mPa·s
